# Results from paper PMC4336329 (PLoS ONE, 2015).
# Out of some 310,000 compounds screened, about 14,000 (4.5%) showed an effect of 50% or more. Effects have a minus sign here. This is one part of the list.
# Molecular target: human ether-à-go-go-related gene (hERG) potassium channel (human, UniProt Q12809)
# Assay: primary screen, population patch clamp on CHO cells stably expressing hERG
# 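Further: peak tail current of the secondary pulse compared with the same well before compound.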
# human ether-à-go-go-related gene (hERG) potassium channel, sequence (Q12809 whole entry, looked up): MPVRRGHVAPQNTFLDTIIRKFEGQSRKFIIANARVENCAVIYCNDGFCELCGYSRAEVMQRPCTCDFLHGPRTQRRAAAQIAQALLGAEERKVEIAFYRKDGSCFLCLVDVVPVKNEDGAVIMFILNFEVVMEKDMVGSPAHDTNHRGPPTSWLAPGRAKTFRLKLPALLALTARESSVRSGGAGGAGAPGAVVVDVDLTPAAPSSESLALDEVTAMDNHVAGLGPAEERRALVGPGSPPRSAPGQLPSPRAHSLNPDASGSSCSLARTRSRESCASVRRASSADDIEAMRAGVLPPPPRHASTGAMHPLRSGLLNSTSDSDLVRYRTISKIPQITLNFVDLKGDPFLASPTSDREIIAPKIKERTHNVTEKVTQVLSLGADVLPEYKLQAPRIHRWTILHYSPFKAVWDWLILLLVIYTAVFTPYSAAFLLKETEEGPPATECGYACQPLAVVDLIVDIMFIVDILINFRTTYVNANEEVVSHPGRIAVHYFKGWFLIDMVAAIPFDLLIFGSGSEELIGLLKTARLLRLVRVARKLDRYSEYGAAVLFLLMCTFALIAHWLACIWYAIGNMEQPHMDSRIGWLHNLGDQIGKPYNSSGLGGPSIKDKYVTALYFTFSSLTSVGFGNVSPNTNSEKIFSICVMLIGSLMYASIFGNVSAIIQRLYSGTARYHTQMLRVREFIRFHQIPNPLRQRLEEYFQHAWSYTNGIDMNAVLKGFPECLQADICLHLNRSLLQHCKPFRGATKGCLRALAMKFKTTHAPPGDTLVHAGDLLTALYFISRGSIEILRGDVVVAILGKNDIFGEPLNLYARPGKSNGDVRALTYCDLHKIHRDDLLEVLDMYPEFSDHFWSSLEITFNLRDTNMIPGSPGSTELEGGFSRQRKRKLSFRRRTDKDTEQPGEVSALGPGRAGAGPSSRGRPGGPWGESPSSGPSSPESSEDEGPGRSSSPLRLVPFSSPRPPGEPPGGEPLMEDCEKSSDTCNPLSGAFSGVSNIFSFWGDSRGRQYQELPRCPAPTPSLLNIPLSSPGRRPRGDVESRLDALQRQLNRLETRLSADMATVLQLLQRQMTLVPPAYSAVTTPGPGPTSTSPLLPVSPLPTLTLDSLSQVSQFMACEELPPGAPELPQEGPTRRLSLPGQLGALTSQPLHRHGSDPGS
row,Compound,"hERG current change (%, negative = inhibition) at 10uM [%]"
1,O=[N+]([O-])c1ccccc1Oc1ccc(S(=O)(=O)N2CCOCC2)cc1,-63.8
2,COC(=O)C1=C(c2cccc(OCc3ccccc3)c2)C[C@@H]2CC[C@H]1N2C(=O)NCc1ccc(C(C)(C)C)cc1,-1.8
3,O=C(NCc1ccccc1F)C1CCCN1C(=O)NCc1ccccc1 (stereo not drawn),0.319
4,COc1ccccc1C1CC(c2cccs2)=Nc2ccccc2S1 (stereo not drawn),14.4
5,CCC(=O)NC(NCC1CCCO1)C(Cl)(Cl)Cl (stereo not drawn),9.52
6,O=C(CCCCn1c(=S)[nH]c2ccsc2c1=O)NCc1ccco1,16.6
7,COc1ccc(S(=O)(=O)Nc2nnc(C(C)(C)C)s2)cc1,5.14
8,Cc1noc(C)c1COc1ccc(C(=O)N2CCC(C)CC2)cc1,-21.5
9,CC1Cc2cc(/C(O)=C3/C(=O)C(=O)N(CCN4CCOCC4)C3c3cccc(O)c3)ccc2O1 (stereo not drawn),-0.168
10,O=C(C1CCCO1)N1CCN(S(=O)(=O)c2cccc3nsnc23)CC1 (stereo not drawn),7.77
11,CCOc1ccc(N2C(=O)Nc3ccccc3C2(O)C(=O)N2CCN(c3ccccn3)CC2)cc1 (stereo not drawn),6.93
12,O=C(CSc1c2c(nc3cc(Cl)ccc13)CCCC2)NCCCN1CCOCC1,-21.5
13,COc1ccc(C2(C(=O)Nc3ccc(C(=O)N4CCOCC4)cc3)CCOCC2)cc1,-4.15
14,COc1ccc(OCC(=O)Nn2c(-c3ccc(OC)cc3)nc3ccccc3c2=O)cc1,4.3
15,Cc1ccccc1NC(=O)c1sc2nc3c(c(-c4ccco4)c2c1N)CCC3,10.5
16,COc1ccc(NC(=O)CS(=O)(=O)c2cccc(Cl)c2)cc1,-3.59
17,COc1ccccc1NC(=O)CSc1nnc(Cc2cccn2C)n1CCc1ccccc1,-20.8
18,O=C(c1cccc(F)c1)N1CCN(c2ccc([N+](=O)[O-])c(N3CCOCC3)c2)CC1,-25
19,O=C1CN(C(=O)COC(=O)c2cccc(Br)c2)c2ccccc2N1,10.1
20,COc1ccc(O)c2c(=O)c3c(OC)cc4c(c3oc12)C1C=COC1O4 (stereo not drawn),4.03
21,CC1Sc2ccc(S(=O)(=O)NCCc3ccc(Cl)cc3)cc2NC1=O (stereo not drawn),5.57

row,Compound,"hERG current change (%, negative = inhibition) at 10uM [%]"
1,COc1ccc(N2CCN(C(=O)c3ccccc3N(C)S(=O)(=O)c3ccccc3)CC2)cc1,-34.1
2,COc1cccc(NC(=O)CN(C)C(=O)CSCC(=O)Nc2ccc(C)cc2)c1,2.29
3,O=C(COc1ccc(Cl)cc1Cl)Nc1nnc(C2=COCCO2)o1,6.77
4,Cc1ccnc(NC(=O)CNC(=O)c2ccccc2Br)c1,11.1
5,CCC1=NN2C(=N)/C(=C\c3cccn3-c3ccc(Cl)cc3)C(=O)N=C2S1,3.11
6,CCCC(=O)Nc1nnc(S(=O)(=O)N2CCCCCC2)s1,8.44
7,Cc1ccc(N=N/C(=C\O)C(=O)c2ccncc2)cc1,-7.27
8,COc1ccc(CC(C)N2CCN(c3ccccc3)CC2)cc1OC (stereo not drawn),-64
9,Cc1ccc(C)c(CN2C(=O)c3ccccc3S(=O)(=O)c3ccc(C(=O)N4CCN(C)CC4)cc32)c1,-0.799
10,COc1ccc2nc(Cl)c(C#N)cc2c1,0.182
11,O=C(CCS(=O)(=O)c1cc2c(cc1Cl)NC(=O)CO2)NCc1ccc(F)cc1,-31.8
12,COCc1cc(C)n(CC(=O)N/N=C/c2ccc(-c3ccc(Cl)c(C(=O)O)c3)o2)c(=O)c1C#N,8.19
13,Cc1ccccc1C1c2[nH]c3ccccc3c2C[C@H]2C(=O)N(c3ccccc3C(=O)NCCN3CCOCC3)C(=O)N12 (stereo partly drawn),-1.87
14,CC(C(=O)NCc1ccccn1)N1C(=O)c2ccccc2C1=O (stereo not drawn),-6.39
15,Cc1ccc(NC(=O)NCCN2CCN(C(=O)Nc3ccc(C)cc3)CC2)cc1,-36.4
16,Cc1cc2c(c(=O)n1CCN(C)C)C(c1ccncc1)C(C#N)=C(N)O2 (stereo not drawn),19.6
17,COc1ccc(N2C(=O)CC(Nc3ccc(C(=O)O)cc3)C2=O)cc1OC (stereo not drawn),7.54
18,O=c1ccc(Oc2nc(N3CCCCC3)nc(N3CCCCC3)n2)n[nH]1,-4.44
19,COc1cc2ncc(S(=O)(=O)c3ccccc3)c(N3CCC4(CC3)OCCO4)c2cc1OC,-80.8
20,CCN1C(=O)/C(=c2\s/c(=C3\Sc4ccccc4N3C)c(=O)n2C)N(C)C1=S,15.7
21,Cc1cc(-c2ccccc2)nc2oc(C(=O)NN)c(N)c12,19.6

row,Compound,"hERG current change (%, negative = inhibition) at 10uM [%]"
1,O=C(N/N=C/c1ccc(F)cc1)c1cc[n+]([O-])cc1,16.8
2,O=S(=O)(c1ccccc1)N1CCN=C1SCc1ccc(Cl)c(Cl)c1,-2.01
3,O=C(NCc1nnc(SCC(=O)N2CCN(c3ccccc3)CC2)o1)c1ccccc1,14
4,CS(=O)(=O)N1CCC(C(=O)Nc2cccc(F)c2)CC1,15.2
5,O=C(CN(C(=O)CCC(=O)Nc1ccccn1)C1CCCC1)NCc1ccc(F)cc1,-22.5
6,C=CCNS(=O)(=O)c1cc(S(=O)(=O)NCC=C)c(OC)cc1OC,18.8
7,CCOc1ccc(Cc2noc3c2C(=O)CC(C)(C)C3)cc1OCC,-14.5
8,CCSc1ncc(Cl)c(C(=O)Nc2ccccc2F)n1,20.9
9,CCC(=O)OCC(=O)Nc1ccc([N+](=O)[O-])cc1OC,9.29
10,COc1ccc(-c2nn(CC(=O)Nc3ccc(Cl)c(Cl)c3)c(=O)c3ccccc23)cc1,6.59
11,O=C(NCc1cccnc1)C1CC(c2ccc(Cl)c(Cl)c2)=NO1 (stereo not drawn),-23.6
12,COc1ccc(OCc2nnc(SCC(=O)O)n2N)cc1,23
13,O=C(NCCc1cccs1)C1CC(c2cccc([N+](=O)[O-])c2)=NO1 (stereo not drawn),-23.5
14,CCCCn1c(N)c(N(CCOC)C(=O)CCNC(=O)c2ccccc2Cl)c(=O)[nH]c1=O,13.4
15,CNc1nc2c(-c3ccc(Cl)cc3)nnn2c2ccccc12,15.7
16,O=C(COc1ccccc1Cl)Nc1cnn(Cc2ccccc2)c1,7.88
17,Cc1cccc([C@@H]2C[C@H]3CN(Cc4cccc(Cl)c4)C(=O)[C@]34CCCN24)n1,-55
18,Cc1ccc(OC(F)F)c(N2C(=O)C3C4CCC(O4)C3C2=O)c1 (stereo not drawn),17.8
19,CN(C)c1ccc(CCN2CCOCC2)cc1,21.9
20,O=C(O)c1ccc(Oc2ccccc2)o1,23.2
21,CN(C)C(=O)CCSc1nnc(-c2ccco2)o1,8.84

row,Compound,"hERG current change (%, negative = inhibition) at 10uM [%]"
1,Cc1ccc(Nc2c([N+](=O)[O-])c(=O)n(C)c3ccccc23)cc1,-36.9
2,NC(=O)CC(NC(=O)Cc1cccc2ccccc12)c1ccc(N2CCN(c3ccccn3)CC2)c([N+](=O)[O-])c1 (stereo not drawn),16.5
3,CCOC(=O)C1=C(C)NC(=O)C(C#N)C1c1ccco1 (stereo not drawn),9.08
4,O=C(O)C1CCN(C(=O)c2cccc3ccccc23)CC1,16.2
5,CC1CC(C)CN(C(=O)COC(=O)C2CCN(S(=O)(=O)c3c(Cl)cccc3Cl)CC2)C1 (stereo not drawn),-31.5
6,CCN(/N=C/C=C/c1ccccc1)c1cc(=O)n(C)c(=O)[nH]1,12.2
7,CCCN1C(=O)/C(=N\OCC(=O)Nc2ccc(C(C)C)cc2)c2ccccc21,-11.4
8,Cc1cc(C)c(Cn2c(=O)n(CCCC(=O)NCc3ccco3)c(=O)c3sccc32)c(C)c1,6.15
9,O=C(COC(=O)c1ccc(O)cc1)Nc1ccccc1[N+](=O)[O-],-10.6
10,CCC(C)NC(=O)c1cc2cc3ccc(OC)cc3nc2o1 (stereo not drawn),11.9
11,C[C@@]1(CO)[C@H](O)CC[C@@]2(C)[C@H]1CC[C@H]1C[C@@H]3C[C@@]12CC[C@]3(O)CO,6.59
12,COc1ccc(CN(C)c2ccc(S(=O)(=O)N3CCN(C)CC3)cc2[N+](=O)[O-])cc1OC,-9.79
13,Cc1ccc(C(=O)N/N=C/c2ccc(S(=O)(=O)[O-])o2)c(Cl)c1.[Na+],16.6
14,Cc1ccsc1/C=N/NC(=O)C1CC(=O)N(c2ccc(F)cc2)C1 (stereo not drawn),-15.1
15,CCOC(=O)c1csc(NC(=O)CSc2nnnn2-c2ccc(OC)c(OC)c2)n1,2.29
16,CCO[C@@H]1OC(C(=O)N2CCOCC2)=C[C@H](C2CCCCC2)[C@H]1CCCO,14.5
17,Cc1ccccc1C(=O)Nc1nnc(-c2ccc(F)cc2)o1,-4.52
18,O=c1[nH]c(=O)n(-c2cc(Br)c(O)c(Br)c2)cc1Br,7.74
19,CC(=O)c1ccc(N2CCN(C(=O)/C=C/c3ccc(S(=O)(=O)N4CCOCC4)cc3)CC2)cc1,-30.3
20,Cc1cccc(-c2nnc3sc(-c4ccccc4)nn23)c1,-12.1
21,CC(=O)OCC12COC3c4ccccc4OC(C)(CC1C)C3C2C (stereo not drawn),-23.9
